Measurements reported in publication PMC5800818 (2018).

B1: Numb-PTBi (Numb^[…]), purified [human] / rhodamine-labeled Mdm2^[…] [modified: rhodamine label (site not stated); rhodamine label (site not stated)] [human] (parent complex)
chain 1: SRPHQWQTDEEGVRTGKCSFPVKYLGHVEVDESRGMHICEDAVKRLKAERKFFKGFFGKTGKKAVKAVLWVSADGLRVVDEKTKDLIVDQTIEKVSFCAPDRNFDRAFSYICRDGTTRRWICHCFMAVKDTGERLSHAVGCAFAACLERKQKREKE
chain 2: not shown

Variants of: B1
Experiment: fluorescence polarisation (FP); n = 6

| Variant | Kd [µM] |
| --- | --- |
| chain 1 F56A, chain 1 F57A | 43.5 |
| chain 1 F52A, chain 1 F53A, chain 1 F56A, chain 1 F57A | 60.6 |
| chain 1 F52A, chain 1 F53A | 29 |
| chain 1 G55A, chain 1 G58A | 4.5 |
| chain 1 R50E, chain 1 K51E, chain 1 K54E, chain 1 K59E | 224 |
| chain 1 K62A, chain 1 K63A | 37.5 |

Variants of: B1
Experiment: fluorescence polarisation (FP); n = 4

| Variant | Kd [µM] |
| --- | --- |
| chain 1 F143V | 4.2 |
